Test results: PubChem BioAssay AID463173 (ICCB-Longwood Screening Facility, Harvard Medical School, 2010)
Out of some 52,000 compounds screened, about 4,300 (8.3%) were called active. Cut-off read from the data, not from the text of the source: active = survival mostly below about 52% (no sharp cut-off); inactive = mostly above about 56%. Some of the results follow.

System: DeltatarO mutant
Assay: S. aureus survival, RN4220 and DeltatarO strains – OD600, teichoic acid synthesis inhibitors, primary screen (AID 463173)
Conditions: S. aureus RN4220 wild type/DeltatarO growth, OD600, 18 h, stronger effect = lower value, screened at 18.75 µg/mL (by protocol)

SMILES | survival
Cc1ccc(Sc2ccc(N3CCC(C(=O)Nc4cc(C)cc(C)c4)CC3)nn2)cc1 | inactive: 76%
Cc1ccc(C2CC(=O)n3nc(-c4ccc(Cl)cc4)nc3S2)cc1 (configuration not stated) | inactive: 84%
CCc1ccc(NC(=O)CSc2nc3c([nH]c4ccccc43)c(=O)n2-c2ccc(C)cc2)cc1 | inactive: 134%
Cc1ccc(CNC(=O)CCS(=O)(=O)c2cc3c4c(c2)CCN4C(=O)CC3)cc1 | inactive: 67%
O=C(Nc1ccc(Cl)cc1)c1cnn2c1NC(c1ccccc1)=CC2c1ccccc1 (configuration not stated) | inactive: 47%
COc1ccc(N2CCN(C(=O)c3cc4sccc4n3Cc3ccccc3)CC2)cc1 | inactive: 92%
O=C1CC(C(=O)O)C2(CCCC2)O1 (configuration not stated) | inactive: 119%
CCc1ccccc1NC(=O)CN(C)S(=O)(=O)c1cccc2nsnc12 | inactive: 92%
COc1ccc(-c2ccc(NS(=O)(=O)c3ccc(NC(C)=O)cc3)cc2)nn1 | inactive: 81%
COc1ccc(OC)c(NC(=O)c2c(NCc3cccs3)sc3c2CCCCC3)c1 | inactive: 67%
CCN(CC)c1ccc(NC(=O)c2c(C)nn(-c3ccc(F)cc3)c2-n2cccc2)c(C)c1 | inactive: 99%
COc1cccc2cc(C(=O)N3CCN(c4cc(C)ccc4C)CC3)c(=O)oc12 | inactive: 56%
N#CCSc1nnc(CNc2ccc(Cl)cc2)n1-c1ccccc1 | inactive: 72%
Fc1ccccc1Nc1c2c(nc3ccccc13)CCC2 | inactive: 95%
Cc1nc(SCC(=O)N2CCN(c3ccccc3)CC2)[nH]c(=O)c1C | inactive: 80%
Cc1[nH]c2ccc(C(=O)N3CCN(c4ccccc4F)CC3)cc2c1C | inactive: 67%
CCN(CC)S(=O)(=O)c1ccc(NC(=O)Cn2ncc3c([nH]c4ccccc43)c2=O)cc1 | inactive: 85%
CC(Oc1ccccc1)C(=O)Nc1ccc(C(=O)OCc2cc(=O)n3nc(C(C)C)sc3n2)cc1 (configuration not stated) | inactive: 90%
CCOc1ccc(/C=C/c2nc(C#N)c(N3CCN(CC)CC3)o2)cc1 | inactive: 70%

SMILES | survival
COc1ccc(-c2noc(N3CCC(C(=O)Nc4cccc(C)c4C)CC3)n2)cc1 | inactive: 83%
CCc1ccc(NC(=O)CSc2nc3nc(C)cc(C)n3n2)cc1 | inactive: 77%
CCOc1cc(CNC(=O)c2cc(-c3ccccc3)n[nH]2)cc(OCC)c1OCC | inactive: 98%
COc1ccc(CCNC(=O)c2ccc3c(c2)CCN3S(=O)(=O)c2ccccc2)cc1 | active: 44%
O=C(CN1C(=O)C2(SCC(=O)N2c2ccc(F)c(F)c2)c2ccccc21)NCCc1ccccc1 (configuration not stated) | inactive: 78%
COc1cc(/C=C/C(=O)C2CC2)cc(OC)c1OC | inactive: 76%
COc1ccc(N2CCN(C(=O)c3cc4c(=O)n(Cc5cccnc5)ccc4nc3C)CC2)cc1 | inactive: 98%
COc1ccc(CCNC(=O)c2cnn(-c3ccc(F)cc3)c2C2CCN(C(=O)OC(C)(C)C)CC2)cc1OC | inactive: 87%
COc1ccc(NC(=O)c2oc3ccc(S(=O)(=O)N4CCOCC4)cc3c2C)c(OC)c1 | inactive: 129%
CCOc1cc(C(c2c(C)[nH]n(-c3ccccc3)c2=O)c2c(C)[nH]n(-c3ccccc3)c2=O)ccc1O | inactive: 67%
COC(=O)c1cc(NS(=O)(=O)c2ccc3c(c2)OCCO3)ccc1Cl | inactive: 65%
CCOc1ccccc1NC(=O)CSc1nc2ccccc2nc1N1CCOCC1 | active: 4%
Cc1cc(C)cc(OCC(=O)Nc2nc(-c3ccc(F)cc3)ns2)c1 | inactive: 89%
Cc1ccccc1NC(=O)CSc1c(C(C)C)cnc2c1c(=O)n(C)c(=O)n2C | inactive: 80%
CN(C(=O)CSc1nc2ccc(NC(=O)c3cccc(F)c3)cc2s1)c1ccccc1 | inactive: 69%
CN(C)N1C(=O)/C(=C/c2cccs2)SC1=Nc1ccccc1 | inactive: 100%
COc1cc(Cl)c(C)cc1NC(=O)CC1Oc2ccccc2NC1=O (configuration not stated) | inactive: 60%
COc1ccc(Cn2c(C(=O)O)c(CNCc3ccc(OC)cc3OC)c3ccc(C)cc32)cc1 | inactive: 83%
COc1ccc(NC(=O)CSCc2cc(=O)c3cc(C)ccc3[nH]2)cc1 | inactive: 68%

SMILES | survival
CCC(Sc1nc2nccnc2c(=O)n1Cc1ccccc1Cl)C(=O)NC1CCCCC1 (configuration not stated) | inactive: 99%
O=S(=O)(c1ccc(C2CCCCC2)cc1)N1CCN(c2cc(Cl)ccc2Cl)CC1 | inactive: 72%
COc1ccc(-n2c(/C=C/c3cccc4ccccc34)nc3ccccc3c2=O)cc1OC | inactive: 90%
Cc1ccc2nc(NCc3ccccc3)c3nncn3c2c1 | inactive: 86%
CCn1cc(C(=O)NCCc2ccc(Cl)cc2)c(=O)c2cc(S(=O)(=O)N(C)C3CCCCC3)ccc21 | inactive: 84%
COc1ccc(NC(=O)c2c(NCc3ccc(C)o3)sc3c2CCCCC3)c(OC)c1 | inactive: 107%
COc1ccc(C(=O)Nc2ccc(-c3nc4ncccc4o3)cc2C)cc1Br | active: 37%
CCn1c(=O)c2cc(C(=O)Nc3cccc(C(F)(F)F)c3)sc2c2ccccc21 | inactive: 84%
O=C(c1cc2sccc2n1Cc1ccccc1)N1CCN(c2ccccc2F)CC1 | inactive: 68%
CCNC(=O)CCCN1C(=O)CCn2nc(-c3cccn3C)cc21 | inactive: 70%
COc1ccc(NC(=O)CC2Oc3ccc(C)cc3NC2=O)cc1Cl (configuration not stated) | inactive: 68%
Cc1cc(C)cc(-n2ccn(CC(=O)NCCc3ccccc3)c(=O)c2=O)c1 | inactive: 75%
COc1cc2c(cc1OC)C(COc1ccc3c(C)cc(=O)oc3c1)N(C(=O)Cc1ccc(F)cc1)CC2 (configuration not stated) | inactive: 80%
Cc1cccc(N(CC(=O)NCCc2ccccc2)S(=O)(=O)c2ccccc2)c1C | active: 56%
CCOc1ccc(C2C(=O)N(C3CCCCCC3)CC(=O)N2Cc2ccc(C)cc2)cc1OC (configuration not stated) | inactive: 96%
COc1ccc(CCNC(=O)c2cc3c(=O)n4cccc(C)c4nc3n2C)cc1 | inactive: 67%
Cc1ccc(-c2csc(-c3c(N)c(C(=O)c4ccc5c(c4)OCO5)n4ccccc34)n2)cc1C | inactive: 84%
O=C(C[n+]1ccccc1)Nc1ccccc1 | inactive: 79%
COc1ccc2c(C)c(CCC(=O)NCc3cccc(Cl)c3)c(=O)oc2c1 | inactive: 73%
